# According to paper PMC4336329 (PLoS ONE, 2015):
# The campaign covered roughly 310,000 compounds. About 14,000 (4.5%) showed an effect of 50% or more. Effects have a minus sign here. Some of the results follow.
# Molecular target: human ether-à-go-go-related gene (hERG) potassium channel (human, UniProt Q12809)
# Assay: primary screen, population patch clamp on CHO cells stably expressing hERG
# 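Note: peak tail current of the secondary pulse compared with the same well before compound.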
# human ether-à-go-go-related gene (hERG) potassium channel, sequence (Q12809 whole entry, looked up): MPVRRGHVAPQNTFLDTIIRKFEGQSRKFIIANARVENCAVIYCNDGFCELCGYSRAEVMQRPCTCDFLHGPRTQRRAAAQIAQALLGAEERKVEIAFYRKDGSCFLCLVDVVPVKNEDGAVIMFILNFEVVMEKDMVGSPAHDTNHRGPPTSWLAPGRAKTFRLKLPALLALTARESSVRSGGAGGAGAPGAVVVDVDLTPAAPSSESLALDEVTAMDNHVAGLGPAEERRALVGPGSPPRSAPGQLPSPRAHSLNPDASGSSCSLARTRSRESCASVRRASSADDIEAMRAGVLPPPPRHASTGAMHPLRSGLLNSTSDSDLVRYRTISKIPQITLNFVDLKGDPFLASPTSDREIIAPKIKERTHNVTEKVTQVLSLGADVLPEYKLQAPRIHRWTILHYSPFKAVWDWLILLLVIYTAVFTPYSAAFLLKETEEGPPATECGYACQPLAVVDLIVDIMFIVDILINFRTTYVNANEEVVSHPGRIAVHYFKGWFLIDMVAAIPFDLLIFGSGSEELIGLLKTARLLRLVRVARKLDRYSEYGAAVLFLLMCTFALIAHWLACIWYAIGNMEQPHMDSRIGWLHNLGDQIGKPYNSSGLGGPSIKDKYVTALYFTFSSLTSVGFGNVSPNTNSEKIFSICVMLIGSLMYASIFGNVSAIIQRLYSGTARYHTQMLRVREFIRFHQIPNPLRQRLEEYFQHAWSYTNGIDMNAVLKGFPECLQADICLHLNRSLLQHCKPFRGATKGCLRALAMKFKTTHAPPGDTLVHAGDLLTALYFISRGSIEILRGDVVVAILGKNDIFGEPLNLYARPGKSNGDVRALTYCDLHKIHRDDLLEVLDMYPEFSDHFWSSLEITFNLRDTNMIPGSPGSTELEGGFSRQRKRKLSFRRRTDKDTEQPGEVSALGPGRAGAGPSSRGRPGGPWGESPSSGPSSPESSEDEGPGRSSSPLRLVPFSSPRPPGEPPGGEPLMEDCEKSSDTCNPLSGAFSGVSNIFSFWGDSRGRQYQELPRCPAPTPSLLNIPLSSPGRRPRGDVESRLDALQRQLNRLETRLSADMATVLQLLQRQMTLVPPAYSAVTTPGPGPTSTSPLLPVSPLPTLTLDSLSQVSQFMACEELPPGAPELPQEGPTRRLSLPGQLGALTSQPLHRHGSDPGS
row,SMILES,"hERG current change (%, negative = inhibition) at 10uM"
1,CCCCN(C(=O)c1cc(-c2ccco2)nc2ccccc12)c1c(N)n(CCCC)c(=O)[nH]c1=O,2.18%
2,CCOC(=O)C1(Cc2ccccc2C)CCCN(C(=O)CN2CCCCC2=O)C1 (centres unmarked),14.8%
3,COc1ccc(Oc2nc(-c3ccccc3)ncc2C(=O)O)cc1,10.9%
4,CCCN(CCC)S(=O)(=O)c1ccc(C(=O)N2CC3CCC(CC3)C2)cc1,11.9%
5,O=c1c2c(-c3ccccc3)csc2nc2n1CCC2,14.5%
6,FC(F)(F)c1ccccc1NC1=NCCC1,0.577%
7,O=C(Nc1ccccc1NC(=O)c1c(F)c(F)c(F)c(F)c1F)c1c(F)c(F)c(F)c(F)c1F,-0.695%
8,CC(OC(=O)C1CCCC1)C(=O)Nc1ccc(C(N)=O)cc1 (centres unmarked),11.5%
9,Cc1ccc(N2CC(C(=O)OCc3ccccc3)CC2=O)cc1 (centres unmarked),-15.6%
10,NC(=S)N/N=C1\CCOc2ccc(Cl)cc21,1.36%
11,CCOC(=O)c1c(S(=O)(=O)N2CCCC(C(=O)Nc3ncccc3C)C2)c(C)n(C)c1C (centres unmarked),15.6%
12,CC1=NN(C(=O)c2csc(C)c2C)C(O)(C(F)(F)F)C1 (centres unmarked),0.00158%
13,Cc1ccc(C(=O)N/N=C/c2sc(=O)n(Cc3cccc(C(=O)O)c3)c2Cl)cc1,7.4%
14,CC1CCCN(CC(=O)Nc2cc(Cl)ccc2Oc2ccccc2)C1 (centres unmarked),14.3%
15,COc1ccc(S(=O)(=O)N2CCCCCC2)cc1NC(=O)CC1OC(=O)c2ccccc21 (centres unmarked),-23.1%
16,O=C1/C(=C/c2ccco2)CCC1C1CCCC1 (centres unmarked),19.6%
17,O=C(CSc1nc2ccccc2[nH]1)Nc1nc(-c2cccc(Br)c2)cs1,14.3%
18,CNC(=O)C1=NCCCc2cc(OC)c(OC)cc21,-9.41%
19,COc1ccccc1CNC(=O)C1CC(c2cccc([N+](=O)[O-])c2)=NO1 (centres unmarked),-30.6%
20,C=CCn1c(SCC(=O)c2ccc(Br)cc2)nnc1C(C)NC(=O)Cc1ccc(OC)cc1 (centres unmarked),-7.55%
21,COc1ccc(CCNC(=O)COC(=O)c2ccc(F)c(S(=O)(=O)N3CCOCC3)c2)cc1,-28.5%
22,CC1=C(C#N)C(=O)N(C2CCS(=O)(=O)C2)C(=O)/C1=C\c1ccco1 (centres unmarked),7.81%

row,SMILES,"hERG current change (%, negative = inhibition) at 10uM"
1,C/C(=N\NC(=O)C(O)(c1ccccc1)c1ccccc1)c1ccc(C)o1,-2.62%
2,Cl.Oc1ccccc1C1NCc2ccccc2-n2cccc21 (centres unmarked),12.6%
3,CCOC(=O)/C(C#N)=C1/C=CN(C)C(C)=N1,8.75%
4,COc1ccc(CN2C(=O)NC(=O)/C(=C/c3cc(OC)c(OC)c(OC)c3)C2=O)cc1,13.1%
5,CCCOc1ccc(N)cc1N.Cl,7.66%
6,COc1ccc(NC(=O)CS(=O)(=O)c2cn(CC(=O)N3CCCC3)c3ccccc23)c(OC)c1,2.47%
7,Cc1ccc(NC(=S)N2CCCC(c3nc4ccc(C)cc4[nH]3)C2)c(C)c1 (centres unmarked),1.56%
8,CCn1cc(CNC(=O)CCc2nnc(CCC3CCCCC3)o2)cn1,11.8%
9,Cc1nc2ccc([N+](=O)[O-])cc2c(=O)n1Cc1ccc(F)cc1,-26.2%
10,CSc1ccc(C(=O)C2CCCN(C(=O)c3cc4cc(F)ccc4[nH]3)C2)cc1 (centres unmarked),1.84%
11,COc1ccc2c(OC)cc(-c3ccccc3)nc2c1,-19.5%
12,COc1nc(Nc2cccc(C(F)(F)F)c2)nc(OC)n1,2.66%
13,COc1ccc([N+](=O)[O-])cc1N(CC(=O)N1CCCC1)S(C)(=O)=O,16.8%
14,CC(=O)Nc1ccc(/C=N/N2C(C)CCCC2C)cc1 (centres unmarked),17.2%
15,Cc1c(C)n(C(=O)CN2CCN(c3ccccc3)CC2)c2ccccc12,-6.16%
16,CCOC(=O)C1CCCN(C2CC(=O)N(c3ccc(C)cc3)C2=O)C1 (centres unmarked),6.8%
17,O=C(O)CCC(=O)N1CCc2cc(S(=O)(=O)N3CC=C(c4ccccc4)CC3)ccc21,16.3%
18,CCc1ccc(NC(=O)CN2C(=O)CSC2=O)cc1,-1.44%
19,COc1ccc(N2C(=O)CC(SCc3ccc(Cl)cc3)C2=O)cc1 (centres unmarked),5.13%
20,Cc1cccc(NC(=O)COC(=O)Cc2c[nH]c3ccccc23)c1C,6.46%
21,Nn1c(SCc2cccc(Cl)c2)nnc1-c1ccncc1,-2.64%
22,CCOC(=O)c1sc(Nc2ccc(C)cc2C)nc1C,7.62%
